Measured values as given in the supplement of paper PMC12217912.
The list shows a part of the results. The full chains were built here from the parent and the listed change. Inactive controls read about 0.05.

B1: TEV protease; numbered along this chain (parent)
chain: MGESLFKGPRDYNPISSSICHLTNESDGHTTSLYGIGFGPFIITNKHLFRRNNGTLVVQSLHGVFKVKDTTTLQQHLVDGRDMIIIRMPKDFPPFPQKLKFREPQREERICLVTTNFQTKSMSSMVSDTSCTFPSGDGIFWKHWIQTKDGQCGSPLVSTRDGFIVGIHSASNFTNTNNYFTSVPKNFMELLTNQEAQQWVSGWRLNADSVLWGGHKVFMVKPEEPFQPVKEATQL

Variants of: B1
Assay: raw area under fraction-flipped curve 0-4 h after induction (AUC4h, not background-subtracted), DNA-recorder readout of cleavage of the substrate (dimensionless); higher = more cleavage of the substrate by the protease variant
Conditions: temperature: 34 °C; time window: 0-4 h after rhamnose induction
Method: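 In vivo DNA recorder in E. coli TOP10(DE3) ΔrhaA at 34 °C. Each TEVp single-site mutant (parent TEVp 0) is paired with a single-site variant of the 7-mer TEVs (canonical ENLYFQ|S). The substrate sits between flexible linkers in a Bxb1-sfGFP-TEVs-SsrA fusion, so cleavage stabilises Bxb1 and speeds flipping of a recombination array, read by NGS. The value is the raw area under the fraction-flipped curve over 0-4 h after rhamnose induction (AUC4h), with ≥20 reads per time point. It is not background-subtracted; inactive controls average about 0.047.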
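Note: Bxb1 expression induced with 0.2% (w/v) L-rhamnose at OD600 near 0.5, cultures sampled hourly, flipped fraction per protease–substrate barcode pair counted by paired-end Illumina sequencing.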

Row | Variant | area with substrate ENLYFAS | area with substrate ENLYFES | area with substrate ENLYFFS | area with substrate ENLYFHS | area with substrate ENLYFIS | area with substrate ENLYFMS | area with substrate ENLYFNS | area with substrate ENLYFPS | area with substrate ENLYFRS | area with substrate ENLYFTS | area with substrate ENLYFVS | area with substrate ENLYFWS | area with substrate ENLYFCS | area with substrate ENLYFGS | area with substrate ENLYFKS | area with substrate ENLYFSS | area with substrate ENLYFYS | area with substrate ENLYFDS | area with substrate ENLYFLS
1 | H215D | 0.0584 | 0.0615 | 0.073 | 0.0542 | 0.0625 | 0.0564 | 0.0635 | 0.0498 | 0.0581 | 0.0385 | 0.0576 | 0.0561 |  |  |  |  |  |  | 
2 | H215W | 0.0474 | 0.059 | 0.0714 |  | 0.0554 | 0.0535 | 0.0617 | 0.056 | 0.0476 | 0.0597 | 0.0538 | 0.0582 | 0.0464 | 0.0567 | 0.0607 | 0.0642 | 0.0455 |  | 
3 | V217Q | 0.0517 | 0.0544 | 0.0527 | 0.0705 | 0.0578 |  |  | 0.0585 |  | 0.0462 | 0.0547 | 0.046 | 0.0613 | 0.056 | 0.067 |  |  | 0.0542 | 
4 | F218P | 0.0477 | 0.0571 | 0.0679 | 0.0472 | 0.0601 |  |  |  |  | 0.0679 | 0.0606 |  | 0.054 | 0.0616 | 0.0541 | 0.0522 | 0.0717 |  | 
5 | M219E | 0.0562 | 0.0608 | 0.0672 | 0.0504 | 0.0537 |  | 0.0599 | 0.065 | 0.0605 |  | 0.0561 | 0.0544 | 0.0641 | 0.0564 | 0.0716 |  | 0.0543 | 0.0469 | 0.0761
6 | M219V | 0.0611 | 0.0682 | 0.0677 | 0.0618 | 0.0535 | 0.0617 | 0.072 | 0.0545 | 0.0794 | 0.0595 | 0.046 | 0.0581 | 0.0552 |  | 0.066 | 0.066 | 0.0553 | 0.0531 | 0.0628
7 | V220I | 0.0405 | 0.0579 |  |  | 0.0552 | 0.0723 | 0.0588 | 0.0566 | 0.0563 | 0.0572 | 0.0525 | 0.0559 | 0.0536 |  |  |  |  | 0.0397 | 0.0523
8 | K221I | 0.0595 | 0.0366 | 0.0736 | 0.0336 | 0.0568 | 0.0532 | 0.0575 | 0.0656 |  | 0.076 | 0.0557 | 0.0596 |  | 0.0557 | 0.0602 | 0.0765 | 0.054 | 0.0791 | 0.0571
9 | K221Q | 0.0499 | 0.0801 | 0.0648 |  | 0.0542 | 0.0607 | 0.075 | 0.0615 | 0.0486 | 0 | 0.0789 |  | 0.0613 | 0.0872 | 0.0665 | 0.0944 | 0.0488 |  | 0.0788
10 | P222C | 0.0603 | 0.029 | 0.0674 |  | 0.059 | 0.0611 | 0.0579 | 0.0577 | 0.0625 | 0.0539 | 0.0606 | 0.0469 | 0.0413 |  | 0.0645 |  | 0.0734 | 0.052 | 0.0624
11 | P222S | 0.0625 | 0.0699 | 0.0699 | 0.0578 | 0.054 |  |  | 0.0592 |  | 0.064 | 0.035 |  |  |  |  | 0.0614 |  | 0.0605 | 
12 | E223T | 0.0621 | 0.0597 | 0.0674 | 0.0409 | 0.0612 | 0.0644 | 0.0715 | 0.0593 | 0.0721 | 0.0281 | 0.0435 |  |  |  | 0.0535 | 0.0559 |  | 0.0653 | 0.0563
13 | P225F | 0.0233 | 0.0747 | 0.0666 | 0.0685 | 0.0549 | 0.0683 |  |  |  | 0.0444 |  | 0.0931 | 0.0708 |  |  | 0.0493 |  |  | 0.055
14 | P225I | 0.0641 |  |  | 0.0576 | 0.0532 |  |  | 0.0617 |  | 0.0492 | 0.0723 |  | 0.0565 |  |  | 0.0696 |  |  | 0.0406
15 | F226W | 0.0656 | 0.0666 | 0.0703 | 0.0567 | 0.0565 | 0.0767 | 0.0736 | 0.0566 | 0.0359 | 0.0611 | 0.0566 | 0.0516 | 0.0604 |  | 0.0636 | 0.0665 | 0.0584 | 0.0735 | 0.0564
16 | Q227I | 0.0593 |  | 0.0708 |  | 0.0801 | 0.0645 | 0.0691 | 0.0653 |  | 0.0459 |  |  | 0.0616 | 0.0686 | 0.0609 |  |  | 0.0676 | 
17 | K230E | 0.0596 | 0.0563 | 0.07 | 0.0518 | 0.0511 |  |  | 0.0617 | 0.0404 | 0.04 |  | 0.0642 |  |  | 0.0651 |  |  | 0.0701 | 0.0462
18 | K230M | 0.058 | 0.08 | 0.0656 |  | 0.0569 | 0.0666 | 0.0561 | 0.0635 | 0.0555 | 0.0602 |  | 0.054 | 0.0644 |  |  | 0.067 | 0.064 |  | 0.0619
19 | T233G | 0.05 | 0.0737 | 0.0757 | 0.0393 | 0.0806 | 0.0477 |  | 0.0618 | 0.0555 | 0.0552 |  | 0.0627 |  | 0.0543 | 0.0652 | 0.0798 | 0.0719 | 0.044 | 0.0656
20 | T233H | 0.057 | 0.0621 |  |  | 0.0578 |  | 0.0653 | 0.058 | 0.0646 | 0.0667 |  | 0.0737 |  |  |  | 0.0558 |  | 0.0506 | 
21 | Q234I | 0.0665 | 0.0633 |  | 0.0576 | 0.0537 | 0.067 | 0.0683 |  | 0.0637 | 0.0411 | 0.0611 | 0.0583 | 0.0698 | 0.055 | 0.0851 |  | 0.0636 |  | 0.0329
22 | Q234K | 0.0569 | 0.0826 | 0.0476 | 0.0454 | 0.0554 | 0.0768 | 0.0477 | 0.0584 | 0.0589 | 0.0577 | 0.031 | 0.0532 |  | 0.0633 | 0.0648 | 0.0571 | 0.0681 | 0.0488 | 0.0605
23 | S4N |  | 0.0556 | 0.063 | 0.0636 | 0.0527 | 0.0617 | 0.0629 | 0.0554 | 0.0821 | 0.0596 |  | 0.0436 | 0.0301 |  | 0.0788 | 0.062 | 0.0541 | 0.0434 | 
24 | R10P |  | 0.0691 | 0.0536 | 0.0544 | 0.0589 | 0.0649 |  | 0.0526 | 0.0765 | 0.0677 |  | 0.0623 | 0.0641 |  | 0.0821 |  |  | 0.0541 | 
25 | D11S |  | 0.0707 | 0.0767 |  | 0.0568 | 0.0756 | 0.0639 | 0.0592 | 0.0632 | 0.0599 | 0.0533 | 0.0588 | 0.0656 | 0.0572 | 0.0588 | 0.0735 | 0.0675 | 0.0678 | 0.0642
